Test results from patent publication US20250243263A1 (VOYAGER THERAPEUTICS, published 2025).
Where no end group is shown, it is not given here. [ ]: non-standard residue; d: D form. pT = C[C@@H](OP(=O)(O)O)[C@H](N)C(=O)O; pS = N[C@@H](COP(=O)(O)O)C(=O)O

Columns and labels:
[1] = biological target: T1, Tau204-222 phospho-peptide (pT212) (human, also: SCBiot-(dPEG4) label); assay: one point ELISA
T1 peptide: GTPGSRSR[pT]PSLPTPPTRE
From the text: (§1) One-point ELISA was used to determine differential binding based on the individual phosphorylation patterns of each peptide. OD values (450 nm) were collected (as shown in Table 13), where a stronger positive signal is shown as a higher OD value, which is indicative of increased binding.

[2] = biological target: T2, Tau204-222 phospho-peptide (pS214) (human, also: SCBiot-(dPEG4) label); assay: one point ELISA
T2 peptide: GTPGSRSRTP[pS]LPTPPTRE
From the text: as §1

[3] = biological target: T3, Tau204-222 phospho-peptide (pT217) (human, also: SCBiot-(dPEG4) label); assay: one point ELISA
T3 peptide: GTPGSRSRTPSLP[pT]PPTRE
From the text: as §1

[4] = biological target: T4, Tau204-222 phospho-peptide (pT212/pS214) (human, also: SCBiot-(dPEG4) label); assay: one point ELISA
T4 peptide: GTPGSRSR[pT]P[pS]LPTPPTRE
From the text: as §1

[5] = biological target: T5, Tau204-222 phospho-peptide (pT212/pT217) (human, also: SCBiot-(dPEG4) label); assay: one point ELISA
T5 peptide: GTPGSRSR[pT]PSLP[pT]PPTRE
From the text: as §1

[6] = biological target: T6, Tau204-222 phospho-peptide (pS214/pT217) (human, also: SCBiot-(dPEG4) label); assay: one point ELISA
T6 peptide: GTPGSRSRTP[pS]LP[pT]PPTRE
From the text: as §1

[7] = biological target: T7, Tau204-222 phospho-peptide (pT212/pS214/pT217) (human, also: SCBiot-(dPEG4) label); assay: one point ELISA
T7 peptide: GTPGSRSR[pT]P[pS]LP[pT]PPTRE
From the text: as §1

[8] = biological target: enriched paired helical filament tau protein (ePHF; sarkosyl insoluble tau) (human, UniProt P10636 2-758); assay: direct ELISA, ePHF coated
Procedure: A set of recombinant human IgG1 antibodies were prepared with clone-specific variable domain pairs selected from those presented in Table 1 and human IgG1 constant domains. These candidate antibodies were analyzed for binding to ePHF and specificity for ePHF over wild type tau by direct ELISA.
For direct ePHF and wildtype tau ELISA, plates were first coated with ePHF or wild type tau. Antigen solutions were prepared in PBS and 50 μL were pipetted into each well. Plates were covered and incubated for one hour at 37° C. or overnight at 4° C. Plates were then washed and blocked by addition of 150 μl of blocking buffer to each well and incubated one hour at room temperature. Plates were then washed before addition of serially diluted candidate antibody samples prepared in blocking buffer. Detection of candidate antibody binding was carried out by washing plates and adding a solution of enzyme-labeled secondary antibody in blocking buffer to each well. Secondary antibody binding was detected by addition of substrate and spectrophotometric analysis of resulting reaction product.

iPHF = biological target: T8, iPHF (UniProt P10636-8 2-441, limits assumed); assay: BLI (Octet), antibody on biosensor tip, iPHF in solution
iPHF, sequence (P10636 other isoform, or with tags, fused parts or gaps limits assumed): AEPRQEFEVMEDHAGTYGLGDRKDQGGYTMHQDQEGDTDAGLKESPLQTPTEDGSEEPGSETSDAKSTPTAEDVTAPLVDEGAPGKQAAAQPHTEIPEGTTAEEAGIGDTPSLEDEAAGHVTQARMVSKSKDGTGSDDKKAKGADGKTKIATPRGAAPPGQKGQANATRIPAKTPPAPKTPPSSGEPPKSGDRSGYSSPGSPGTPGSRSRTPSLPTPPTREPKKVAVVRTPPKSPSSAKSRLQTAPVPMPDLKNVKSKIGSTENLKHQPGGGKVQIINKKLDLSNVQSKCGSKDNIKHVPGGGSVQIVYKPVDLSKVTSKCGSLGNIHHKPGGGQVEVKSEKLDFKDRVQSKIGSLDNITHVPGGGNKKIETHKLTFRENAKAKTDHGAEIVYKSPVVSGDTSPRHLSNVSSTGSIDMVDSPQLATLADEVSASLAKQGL
T8 construct: also called iPHF tau
Procedure: Anti-human tau antibodies were assessed for affinity for iPHF by Octet (ForteBio, Menlo Park, CA) analysis. A set of recombinant human IgG1 antibodies were prepared with clone-specific variable domain pairs selected from those presented in Table 1 and human IgG1 constant domains. Candidate antibodies were immobilized on biosensor tips (ForteBio) in kinetic buffer (ForteBio). Biosensor tips were then washed before introduction of a solution of iPHF in kinetic buffer for analysis of association and dissociation with candidate antibodies.

B1: VY002 (antibody, V domains shown)
VH: [in this place about 100 residues]DYPKDVWGQGTTVTVSS
VL: DIVMTQSPDSLAVSLGERATINCKSSQSVLYSSKNKNYLAWYQQKPGQPPKLLIYWASTRESGVPDRFSGSGSGTDFTLAISSLQAEDVAVYYCQQYYSSPYTFGQGTKLEIK
OD (450 nm) [1]: 0.055 OD450
OD (450 nm) [2]: 0.058 OD450
OD (450 nm) [3]: 0.068 OD450
OD (450 nm) [4]: 0.055 OD450
OD (450 nm) [5]: 0.06 OD450
OD (450 nm) [6]: 0.062 OD450
OD (450 nm) [7]: 0.06 OD450
EC50 [8]: 0.03 nM
Kd (iPHF): 1 nM
